# Structures can show the parent of a compound that is named as a salt. Viability of KB3-1 and Nalm-6 cells after 48 h of drug alone (CellTiter-Glo), 11 doses over about 4.5 log units. % of DMSO wells, lower = more cell loss; AC50 from the fitted curve, lower = more potent. No active / inactive call. Nalm-6 was screened in two runs. AC50 is listed only for well-fitted inhibitory curves. KB3-1 is a HeLa-derived carcinoma line, Nalm-6 a B-cell precursor leukaemia line.
# Assays:
# KB3-1 [1] = assay: viability (% of DMSO control); higher = more viable cells
# Procedure: (§1)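 Eleven-dose screen of the NCATS MIPE 3 library on cells without co-treatment; CellTiter-Glo after 48 h, as % of DMSO wells.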
# Nalm-6 [2] = assay: as above
# Procedure: as §1
# KB3-1 [3] = assay: log AC50 of viability decrease (48 h) (log10 M); higher = less potent
# Procedure: (§2)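 Eleven-dose screen of the NCATS MIPE 3 library on cells without co-treatment; CellTiter-Glo after 48 h. AC50 from the curve fit; only inhibitory curves of the better fit classes are listed.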
# Nalm-6 [4] = assay: as above
# Procedure: as §2
Compound,viability (KB3-1 [1]; 0.00078 µM) [%],viability (KB3-1 [1]; 0.00234 µM) [%],viability (KB3-1 [1]; 0.00702 µM) [%],viability (KB3-1 [1]; 0.0211 µM) [%],viability (KB3-1 [1]; 0.0632 µM) [%],viability (KB3-1 [1]; 0.19 µM) [%],viability (KB3-1 [1]; 0.569 µM) [%],viability (KB3-1 [1]; 1.71 µM) [%],viability (KB3-1 [1]; 5.12 µM) [%],viability (KB3-1 [1]; 15.4 µM) [%],viability (KB3-1 [1]; 46.1 µM) [%],"viability (Nalm-6 [2]; run: 1, 0.00078 µM) [%]","viability (Nalm-6 [2]; run: 1, 0.00234 µM) [%]","viability (Nalm-6 [2]; run: 1, 0.00702 µM) [%]","viability (Nalm-6 [2]; run: 1, 0.0211 µM) [%]","viability (Nalm-6 [2]; run: 1, 0.0632 µM) [%]","viability (Nalm-6 [2]; run: 1, 0.19 µM) [%]","viability (Nalm-6 [2]; run: 1, 0.569 µM) [%]","viability (Nalm-6 [2]; run: 1, 1.71 µM) [%]","viability (Nalm-6 [2]; run: 1, 5.12 µM) [%]","viability (Nalm-6 [2]; run: 1, 15.4 µM) [%]","viability (Nalm-6 [2]; run: 1, 46.1 µM) [%]","viability (Nalm-6 [2]; run: 2, 0.00078 µM) [%]","viability (Nalm-6 [2]; run: 2, 0.00234 µM) [%]","viability (Nalm-6 [2]; run: 2, 0.00702 µM) [%]","viability (Nalm-6 [2]; run: 2, 0.0211 µM) [%]","viability (Nalm-6 [2]; run: 2, 0.0632 µM) [%]","viability (Nalm-6 [2]; run: 2, 0.19 µM) [%]","viability (Nalm-6 [2]; run: 2, 0.569 µM) [%]","viability (Nalm-6 [2]; run: 2, 1.71 µM) [%]","viability (Nalm-6 [2]; run: 2, 5.12 µM) [%]","viability (Nalm-6 [2]; run: 2, 15.4 µM) [%]","viability (Nalm-6 [2]; run: 2, 46.1 µM) [%]",log AC50 of viability decrease (KB3-1 [3]),log AC50 of viability decrease (Nalm-6 [4]; run: 1),log AC50 of viability decrease (Nalm-6 [4]; run: 2)
CC(=O)N(C)C1(c2ccccc2)CCN(CCC[C@]2(c3ccc(Cl)c(Cl)c3)CCCN(C(=O)c3ccccc3)C2)CC1 [Osanetant],98.7,101,102,96.5,98.2,99.4,95.4,93.5,104,66.1,0.611,82.5,87.9,91.7,103,96.5,95.4,99,96.6,86.4,40.1,0.713,98,96.7,99.4,100,97.3,95.1,99,103,95.2,34.9,0.95,-4.73,-4.83,-4.88
COC(=O)Nc1ccc(-c2nc(N3CCOCC3)c3cnn(C4CCN(C(=O)OC)CC4)c3n2)cc1 [WYE-354],95.2,100,101,90.2,81.4,71.1,59,47.2,45,45.1,40.9,99.9,102,106,98,92.9,93.7,93.4,78.8,65.1,60.9,6.49,105,106,103,109,108,103,91.9,90,68.2,72.8,3.97,-6.73,-4.73,-4.78
C#Cc1cccc(Nc2ncnc3cc(OCCOC)c(OCCOC)cc23)c1 [Erlotinib hydrochloride],108,105,103,102,98,106,104,95.4,81,73.8,64.5,120,114,106,107,112,118,108,116,92.4,70.9,53.9,102,108,98.4,94.5,106,106,112,104,90.9,77.2,48.4,-5.33,-5.03,-4.78
CCCCc1nc2cc(/C=C/C(=O)NO)ccc2n1CCN(CC)CC [Pracinostat],104,106,105,102,90.2,68,39.9,28.5,16.2,13.5,12.8,117,119,118,115,95.9,41,8.5,5.54,4.49,4.15,2,114,114,105,100,86.2,30.2,3.96,3.53,3.32,2.57,0.814,-6.58,-6.88,-6.93
C[C@@H](Oc1cc(-c2cnn(C3CCNCC3)c2)cnc1N)c1c(Cl)ccc(F)c1Cl [Crizotinib],105,104,104,106,103,102,103,95.7,79.2,74.1,29.8,122,118,125,116,116,105,108,80,46.2,33.1,-0.765,109,111,106,107,110,106,108,89.1,64.5,66.2,-0.749,-4.73,-5.28,-4.78
CC[C@@H](C)[C@H](NC(=O)[C@H](CC1CCCCC1)NC(=O)c1ccno1)C(=O)N1CCC2(CCc3ccccc32)CC1 [GB 83],102,99.5,102,101,103,98,101,100,95.3,82.9,68.1,116,96,105,107,122,118,112,103,99.9,78.5,63.6,102,105,108,106,111,107,107,103,103,96.6,91.7,-4.78,-4.93,

# — the supplement of paper PMC4996465
